Measurements published in IntAct's records for PubMed 18840636.

B1: Adrenocorticotropic hormone receptor (Homo sapiens), Q01718 (parent)
chain: MKHIINSYENINNTARNNSDCPRVVLPEEIFFTISIVGVLENLIVLLAVFKNKNLQAPMYFFICSLAISDMLGSLYKILENILIILRNMGYLKPRGSFETTADDIIDSLFVLSLLGSIFSLSVIAADRYITIFHALRYHSIVTMRRTVVVLTVIWTFCTGTGITMVIFSHHVPTVITFTSLFPLMLVFILCLYVHMFLLARSHTRKISTLPRANMKGAITLTILLGVFIFCWAPFVLHVLLMTFCPSNPYCACYMSLFQVNGMLIMCNAVIDPFIYAFRSPELRDAFKKMIFCSRYW
partner: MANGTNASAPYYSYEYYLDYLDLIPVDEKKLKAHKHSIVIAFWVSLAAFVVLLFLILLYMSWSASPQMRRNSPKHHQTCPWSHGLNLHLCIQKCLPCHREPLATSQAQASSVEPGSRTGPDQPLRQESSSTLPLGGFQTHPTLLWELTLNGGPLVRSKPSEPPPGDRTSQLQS

Variants of: B1
Details: with q8tcy5-1 MRAP

Variant	effect of a mutation on the interaction
MKHIINSYENINNTARNNSDCPRVVLPEEIFFTISIVGVLENLIVLLAVFKNKNPQAPMYFFICSLAISDMLGSLYKILENILIILRNMGYLKPRGSFETTADDIIDSLFVLSLLGSIFSLSVIAADRYITIFHALRYHSIVTMRRTVVVLTVIWTFCTGTGITMVIFSHHVPTVITFTSLFPLMLVFILCLYVHMFLLARSHTRKISTLPRANMKGAITLTILLGVFIFCWAPFVLHVLLMTFCPSNPYCACYMSLFQVNGMLIMCNAVIDPFIYAFRSPELRDAFKKMIFCSRYW [L55P]	with no effect
MKHIINSYENINNTARNNSDCPRVVLPEEIFFTISIVGVLENLIVLLAVFKNKNLQAPMYFFICSLAISDMLGSLYKILENILIILRNMGYLKPRGSFETTADDIIDSLFVLSLLGSIFSLSVIAADRYNTIFHALRYHSIVTMRRTVVVLTVIWTFCTGTGITMVIFSHHVPTVITFTSLFPLMLVFILCLYVHMFLLARSHTRKISTLPRANMKGAITLTILLGVFIFCWAPFVLHVLLMTFCPSNPYCACYMSLFQVNGMLIMCNAVIDPFIYAFRSPELRDAFKKMIFCSRYW [I130N]	with no effect
MKHIINSYENINNTARNNSDCPRVVLPEEIFFTISIVGVLENLIVLLAVFKNKNLQAPMYFFICSLAISDMLGSLYKILENILIILRNMGYLKPRGSFETTADDIIDSLFVLSLLGSIFSLSVIAADRYITIFHALWYHSIVTMRRTVVVLTVIWTFCTGTGITMVIFSHHVPTVITFTSLFPLMLVFILCLYVHMFLLARSHTRKISTLPRANMKGAITLTILLGVFIFCWAPFVLHVLLMTFCPSNPYCACYMSLFQVNGMLIMCNAVIDPFIYAFRSPELRDAFKKMIFCSRYW [R137W]	with no effect
MKHIINSYENINNTARNNSDCPRVVLPEEIFFTISIVGVLENLIVLLAVFKNKNLQAPMYFFICSLAISDMLGSLYKILENILIILRNMGYLKPRGSFETTADDIIDSLFVLSLLGSIFSLSVIAADRYITIFHALRYHSIVTMRRTVVVLTVIWTFCTGTGITMVIFSHHVPTVITFTSLFPLMLVFILCLYVHMFLLARSHTRKISTLPRANMKGAITLTILLRVFIFCWAPFVLHVLLMTFCPSNPYCACYMSLFQVNGMLIMCNAVIDPFIYAFRSPELRDAFKKMIFCSRYW [G226R]	with no effect
